Source: PubChem BioAssay AID1671193 (National Center for Advancing Translational Sciences (NCATS), 2021)
“And” between values parts separate entries of the source, which are not always exact repeats. Identical values can stand only once. In all, about 150,000 compounds went through this assay and about 180 (0.12%) were called active. Inconclusive results, whose numbers are uncertain, are shown with a selection of clear calls. The call rests on the fitted dose curve; in most records, active means well fitted cell-killing curve with a large enough effect; inconclusive means small, poorly fitted or top-dose-only effect, or effect the other way; inactive means flat fitted curve, though single readings scatter. Potencies of inconclusive entries are doubtful fits and often do not repeat.

Assay: GF-AFC viability counterscreen for inhibitors of alpha-synuclein gene (SNCA) expression; further: nearly all actives have a fitted effect of over 30% in size;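 on activity change, negative = cytotoxicity: 0% = DMSO-treated cells and -100% = medium-only wells without cells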
Conditions: HEK-293-SNCA-luc viability, GF-AFC fluorescence, 24 h; activity change, negative = cytotoxicity: at 57.1 µM (top of the series) unless noted
Summary of the method: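 Cytotoxicity counterscreen: after 24 h compound treatment of genome-edited SNCA-luciferase HEK-293 cells, live-cell protease substrate GF-AFC read by fluorescence after 30 min; activity scaled between DMSO (0%) and medium-only (-100%), curves Hill-fitted.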
Potency means the concentration at half of the fitted maximal effect; tags describe the fitted curve by direction and shape.

| Structure (SMILES) | activity change, negative = cytotoxicity | Potency |
| --- | --- | --- |
| O=C(CNC(=O)c1cccc(-c2ccsc2)c1)NCC(F)F | inactive: -4.23% [at 12.5 µM] |  |
| COCCCNC(=O)CSc1nc(-c2cccc(F)c2)[nH]c1-c1ccccc1 |  | inconclusive: 31.6 µM [cytotoxic, partial curve, poor fit] |
| Cc1noc(C)c1-c1cc2cc(CN(C)C)oc2c(N2CCN(c3ccccn3)CC2)n1 |  | inconclusive: 31.6 µM [cytotoxic, single point] |
| CCCCOc1ccc(C2c3c(-c4ccccc4O)n[nH]c3C(=O)N2Cc2ccncc2)cc1OC (stereo not given) |  | inconclusive: 15.8 µM [cytotoxic, partial curve, poor fit] |
| COc1ccc(-c2nc(C)nc3c2CCN(Cc2ccnn2C)CC3)cc1 | inactive: -13.3% |  |
| Cc1[nH]c2ccccc2c1CCNCc1ccc(C=CC(=O)NO)cc1 |  | inconclusive: 12.1 µM [cytotoxic, full curve] |
| O=C(NCc1ccccn1)c1c(OCC2CC2)cc(=O)n2c1CCCCC2 |  | inconclusive: 39.8 µM [rising, partial curve, poor fit] |
| Cc1c(Cl)cccc1N1CC(c2nc3ccccc3n2Cc2ccccc2F)CC1=O (stereo not given) |  | inconclusive: 39.8 µM [cytotoxic, single point] |
| COc1ccc(-n2nc3n(c2=O)CCN(C(=O)c2ccc(C(F)(F)F)cc2)C3)cc1 | inactive: 3.06% |  |
| COc1cc(OC)cc(C(=O)Nc2ccc3c(c2)CN(Cc2ccccc2)C(=O)C(C)O3)c1 (stereo not given) | inactive: -9.02% |  |
| CCCCCSc1nnc2c(n1)OC(c1ccc(C)s1)N(C(C)=O)c1ccccc1-2 (stereo not given) |  | inconclusive: 20 µM [cytotoxic, partial curve, poor fit] |
| O=C(CN1Cc2nc(Nc3ccc(C(F)(F)F)cc3)ccc2OCC1=O)N1CCCC1 |  | inconclusive: 35.5 µM [cytotoxic, single point] |
| CC(C)N1C(=O)C2(CCCCC2)C1C(=O)N1CCOCC1 (stereo not given) | inactive: -0.401% |  |
| CN(c1ccccc1)c1cc(=O)c2ccnc(Nc3cccnc3)c2o1 | inactive: -3.41% [at 87.6 µM] |  |
| COc1cccc(NC(=O)Cn2c(=O)n(Cc3ccccc3)c(=O)c3c4c(sc32)CN(C(C)=O)CC4)c1 |  | inconclusive: 28.2 µM [cytotoxic, partial curve, poor fit] |
| CCn1c(=O)c2cc(C(=O)N(C)c3cc(C)ccc3C)sc2c2ccccc21 |  | inconclusive: 11.2 µM [rising, partial curve, poor fit] |
| CCOc1ccccc1NC(=O)Cn1c(=O)n(Cc2ccc(C(=O)NCCCOC)cc2)c(=O)c2ccccc21 |  | inconclusive: 39.8 µM [rising, single point] |
| CCCCN1CC(c2nc3ccccc3n2CCCCOc2c(C)cccc2C)CC1=O (stereo not given) |  | inconclusive: 28.2 µM [cytotoxic, single point] |
| Cc1noc(-c2cn(C3CCN(C(=O)c4cccc(Cl)c4)C3)nn2)n1 (stereo not given) |  | inconclusive: 2.51 µM [rising, full curve, poor fit] |
| Cc1nn2c(c1-c1cccnc1N1CCOCC1)N(C(=O)C(C)C)CCC2 | inactive: 1.14% [at 87.6 µM] |  |

| Structure (SMILES) | activity change, negative = cytotoxicity | Potency |
| --- | --- | --- |
| CCOCCCn1c(SCC(=O)Nc2ccccc2OC)nc2c(oc3ccccc32)c1=O |  | inconclusive: 44.7 µM [cytotoxic, partial curve, poor fit] |
| Cc1ccc(C)c(CN2C(=O)c3ccccc3S(=O)(=O)c3ccc(C(=O)N4CCN(Cc5ccccc5)CC4)cc32)c1 |  | inconclusive: 39.8 µM [cytotoxic, single point] |
| Cc1ccc(Nc2ncncc2-c2nc(-c3ccccc3)no2)c(C)c1 | inactive: 2.6% |  |
| Oc1ccc(-c2cc3c(cn2)CN(Cc2ccccc2)CCN3)cc1F |  | inconclusive: 56.2 µM [cytotoxic, single point] |
| COc1ccc(C(=O)NC2CCN(c3cc(-c4ccccc4)[nH]n3)CC2)c(OC)c1 | inactive: -10.5% |  |
| N#Cc1ccc(CN2C[C@@H]3C(=O)N(CCN4CCc5ccccc5C4)C(=O)[C@@H]3C2)cc1 | inactive: 32.6% |  |
| CC1CCN(C(=O)c2ccc(NC(=O)c3nsc4ccccc34)cc2)CC1 |  | inconclusive: 22.4 µM [cytotoxic, partial curve, poor fit] |
| CCC[C@@H](C=O)NC(=O)[C@H](CC(C)C)NC(=O)[C@H](CC(C)C)NC(=O)OCc1ccccc1 |  | inconclusive: 2.15 µM [cytotoxic, full curve] |
| COc1ccc(Br)cc1CNC(=O)CCSCc1ccc(Cl)cc1 |  | inconclusive: 2 µM [rising, partial curve, poor fit] |
| O=C(CC1N=C2c3ccccc3N=C(SCc3ccccc3Cl)N2C1=O)NC1CCCCC1 (stereo not given) |  | inconclusive: 39.8 µM [cytotoxic, single point] |
| COCCN1C(=O)c2cccn2CC1CNC(=O)CCc1ccc(OC)cc1 (stereo not given) | inactive: 11.3% |  |
| CSc1ccc(CCNC(=O)CN2C(=O)COc3ccc(S(=O)(=O)N4CCCCCC4)cc32)cc1 |  | inconclusive: 14.1 µM [cytotoxic, partial curve] |
| Oc1ccc(NCc2ccccc2OCc2ccccc2)cc1 |  | inconclusive: 39.8 µM [cytotoxic, single point] |
| O=C1c2ccccc2-[n+]2ccc3c([nH]c4ccccc43)c21 |  | inconclusive: 3.04 µM [cytotoxic, full curve] |
| O=C(c1cccc(Cl)c1)N1CC(CNc2cccnc2)C2(C1)CN(c1ccccc1)C2 (stereo not given) |  | inconclusive: 35.5 µM [cytotoxic, partial curve, poor fit] |
| O=C(NC[C@H]1OC[C@@H](N(Cc2cccs2)Cc2cccs2)[C@@H]1O)c1ccccc1 |  | inconclusive: 56.2 µM [cytotoxic, single point] |
| Cc1ccc2[nH]cc(C(c3ccccc3)c3ccc(Cl)s3)c2c1 (stereo not given) |  | inconclusive: 39.8 µM [cytotoxic, single point] |
| O=C(Nc1ccc(F)c(F)c1)C(c1ccccc1)N1Cc2ccccc2C1=O (stereo not given) |  | inconclusive: 12.6 µM [cytotoxic, partial curve] |
| O=C(c1ccc2c(c1)OCO2)N1CCN(c2cc(-c3ccc(F)cc3)[nH]n2)CC1 | inactive: 5.35% |  |
| COc1cc(N2CCC(N3CCN(C)CC3)CC2)ccc1Nc1ncnc(Nc2ccccc2S(=O)(=O)C(C)C)n1 |  | inconclusive: 6.07 µM [cytotoxic, full curve] and inconclusive: 9.47 µM [cytotoxic, partial curve] |
